Measurements: paper PMC9959916
Positions count from the first letter of the chain named. No constants are given. Whether binding was seen depends on the method and setting. Some entries that bind do so weakly or less than the wild type. Tags and fused reporters may be left off the sequences shown.

Amino acid sequences for entries named in this document (tags omitted).
UniProt Q8MKI8: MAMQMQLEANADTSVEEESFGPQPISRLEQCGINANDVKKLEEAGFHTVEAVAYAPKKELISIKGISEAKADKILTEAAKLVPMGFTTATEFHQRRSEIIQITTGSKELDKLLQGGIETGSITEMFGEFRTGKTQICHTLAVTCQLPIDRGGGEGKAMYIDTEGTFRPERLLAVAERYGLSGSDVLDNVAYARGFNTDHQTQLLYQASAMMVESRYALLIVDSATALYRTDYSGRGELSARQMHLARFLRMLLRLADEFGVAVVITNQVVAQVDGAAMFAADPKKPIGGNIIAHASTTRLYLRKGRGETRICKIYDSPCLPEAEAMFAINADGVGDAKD

How the values were obtained:
Experiment in all cases: two-hybrid; mammalian two-hybrid in HeLa cells: pM (Gal4 DNA-binding domain)-BRCA2 peptide, pVP16-canine RAD51, pG5-Luc firefly luciferase reporter, normalised to Renilla (pRL-TK); read two days after transfection
[1] = molecular target: T1, Gal4 DNA-binding domain-fused cBRC1-ΔHCR-BRC2 (canine BRCA2 993–1248 aa deleted with 1101–1133 aa) (canine (Canis lupus familiaris)) (UniProt Q8MKI9)
T1 sequence: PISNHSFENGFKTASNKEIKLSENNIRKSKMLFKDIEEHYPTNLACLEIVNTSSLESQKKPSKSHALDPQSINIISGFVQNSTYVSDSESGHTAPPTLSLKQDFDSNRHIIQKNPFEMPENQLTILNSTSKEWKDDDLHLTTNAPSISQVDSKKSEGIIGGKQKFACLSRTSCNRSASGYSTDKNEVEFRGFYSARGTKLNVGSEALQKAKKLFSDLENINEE

[2] = molecular target: T2, Gal4 DNA-binding domain-fused cBRC1-HCR-BRC2 (canine BRCA2 993–1248 aa) (canine (Canis lupus familiaris)) (UniProt Q8MKI9)
T2 sequence: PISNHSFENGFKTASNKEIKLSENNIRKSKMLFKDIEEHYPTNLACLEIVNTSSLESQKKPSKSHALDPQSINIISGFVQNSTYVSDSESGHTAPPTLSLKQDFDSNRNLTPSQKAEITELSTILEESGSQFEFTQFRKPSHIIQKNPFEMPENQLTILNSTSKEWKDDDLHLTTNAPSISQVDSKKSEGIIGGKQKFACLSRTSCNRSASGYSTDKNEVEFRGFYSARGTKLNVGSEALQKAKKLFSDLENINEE

[3] = molecular target: T3, Gal4 DNA-binding domain-fused cBRC1-HCR-BRC2 T1127E (canine (Canis lupus familiaris)) (UniProt Q8MKI9)
T3 sequence: T2 sequence with T135E

[4] = molecular target: T4, Gal4 DNA-binding domain-fused cBRC1-HCR-BRC2 T1115P (canine (Canis lupus familiaris)) (UniProt Q8MKI9)
T4 sequence: T2 sequence with T123P

[5] = molecular target: T5, Gal4 DNA-binding domain-fused cBRC1-HCR-BRC2 S1105E (canine (Canis lupus familiaris)) (UniProt Q8MKI9)
T5 sequence: T2 sequence with S113E

[6] = molecular target: T6, Gal4 DNA-binding domain-fused cBRC1-HCR-BRC2 T1127A (canine (Canis lupus familiaris)) (UniProt Q8MKI9)
T6 sequence: T2 sequence with T135A

[7] = molecular target: T7, Gal4 DNA-binding domain-fused cBRC1-HCR-BRC2 I1110M (canine (Canis lupus familiaris)) (UniProt Q8MKI9)
T7 sequence: T2 sequence with I118M

binding [1]: binds | binding [2]: binds | binding [3]: binds | binding [4]: binds | binding [5]: binds | binding [6]: binds | binding [7]: binds
Substance: VP16-fused canine RAD51 (from UniProt Q8MKI8 1-339)
